About 220 (0.56%) of roughly 39,000 compounds showed activity. This is one part of the list.
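Also: static incubation at 37 °C against the wild-type strain, values averaged over two biological replicates.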

This experiment has as its system Escherichia coli K-12 BW25113. The experiment is described as follows: relative growth (OD600 normalised to plate interquartile mean) (fraction); higher = less growth inhibition, active = 0.2 or less. Conditions: 50 µM; LB; incubation time: overnight (16-24 h).
With `O=C(NCCN1CCCC1)[C@@H]1[C@@H](CO)[C@@H]2Cn3c(cccc3=O)[C@@H]2N1C(=O)c1ccccc1`, the relative growth is inactive: 1.02.
Take `C[C@H](CO)N1C[C@H](C)[C@H](CN(C)C(=O)Cc2ccccc2)OCCCC[C@H](C)Oc2ccc(NC(=O)NC3CCCCC3)cc2C1=O`: the relative growth was inactive: 1.01.
The value for `C=C1C(CO)C(O)CC1n1cnc2c(=O)[nH]c(N)nc21.O` (stereo not drawn) was inactive: 0.816.
As for `C[C@H](CO)N1C[C@H](C)[C@@H](CN(C)Cc2ccncc2)Oc2c(NC(=O)Nc3ccc(C(F)(F)F)cc3)cccc2C1=O`, the relative growth was inactive: 0.981.
The value for `COc1ccc(CN(C)C[C@@H]2Oc3ccc(NS(C)(=O)=O)cc3C(=O)N([C@@H](C)CO)C[C@H]2C)cc1` was inactive: 1.01; that for `C[C@H](CO)N1C[C@H](C)[C@H](CN(C)Cc2ccc(C(F)(F)F)cc2)Oc2ccc(NS(=O)(=O)c3ccc(Cl)cc3)cc2CC1=O` was inactive: 1.03; that for `COc1ccc(S(=O)(=O)N(C)C[C@@H]2Oc3c(NC(=O)Nc4c(C)noc4C)cccc3C(=O)N([C@H](C)CO)C[C@H]2C)cc1` was inactive: 1.03.
The same measure for `COc1ccc(S(=O)(=O)N(C)C[C@@H]2OCCCC[C@@H](C)Oc3ccc(NC(=O)CCC(F)(F)F)cc3C(=O)N([C@H](C)CO)C[C@H]2C)cc1`: inactive: 1.02; for `CC(C)NC(=O)N(C)C[C@@H]1Oc2cc(C#Cc3cccc(F)c3)ccc2S(=O)(=O)N([C@@H](C)CO)C[C@H]1C`: inactive: 1.02; for `COCC(=O)N(C)C[C@H]1Oc2cc(C#C[C@H](C)O)ccc2S(=O)(=O)N([C@@H](C)CO)C[C@@H]1C`: inactive: 0.999.
As for `Cc1noc(C)c1NC(=O)Nc1cccc2c1O[C@@H](CN(C)Cc1ccc(C(F)(F)F)cc1)[C@H](C)CN([C@H](C)CO)C2=O`, the relative growth was inactive: 0.977.
The same measure for `C[C@@H]1CN([C@@H](C)CO)C(=O)Cc2cc(N(C)C)ccc2O[C@H]1CN(C)S(=O)(=O)c1ccc(Cl)cc1`: inactive: 0.994; for `N#C[C@H]1N[C@H](CO)[C@H]1c1ccccc1`: inactive: 1.01; for `COc1ccc(NC(=O)N(C)C[C@@H]2Oc3c(NC(=O)CCCCCC(=O)Nc4ccccc4N)cccc3C(=O)N([C@@H](C)CO)C[C@@H]2C)cc1`: inactive: 1.01.
The same measure for `CN1[C@@H]2c3ccc(-c4ccccc4)c(=O)n3C[C@H]1[C@H](CO)[C@H]2C(=O)NCCCN1CCOCC1`: inactive: 1.02; for `C[C@H](CO)N1C[C@H](C)[C@H](CN(C)C(=O)Nc2cccc3ccccc23)OCCCC[C@H](C)Oc2ccc(NC(=O)Nc3ccc(C(F)(F)F)cc3)cc2C1=O`: inactive: 1.06; for `C[C@@H]1CN([C@H](C)CO)C(=O)Cc2cc(NC(=O)Nc3cccc4ccccc34)ccc2O[C@H]1CN(C)Cc1ccc(C(F)(F)F)cc1`: inactive: 1.02.
The same measure for `C[C@@H]1CN([C@H](C)CO)C(=O)c2cc(NC(=O)Nc3ccc(C(F)(F)F)cc3)ccc2O[C@@H](C)CCCCO[C@@H]1CN(C)Cc1ccncc1`: inactive: 1.02; for `COc1ccc(C#Cc2cnc3c(c2)C(=O)N([C@H](C)CO)C[C@H](C)[C@H](CN(C)S(=O)(=O)c2ccc(F)cc2)O3)cc1OC`: inactive: 1.02.
On to `COc1cccc(OC)c1C(=O)NCCCO`, for which the relative growth is inactive: 0.994.
The value for `COC(=O)C[C@@H]1CC[C@@H]2[C@H](COC[C@@H](O)CN2S(=O)(=O)c2ccccc2C)O1` was inactive: 1; that for `CCCNC(=O)N(C)C[C@@H]1Oc2ncc(-c3ccc(C(=O)N(C)C)cc3)cc2C(=O)N([C@@H](C)CO)C[C@H]1C` was inactive: 0.999.
Take `CS(=O)(=O)N1CCN(C[C@@H](O)C2CC2)CC1`: the relative growth is inactive: 1.01.
The value for `Cc1ccc(S(=O)(=O)N(C)C[C@H]2Oc3ccc(NC(=O)c4ccncc4)cc3CC(=O)N([C@H](C)CO)C[C@H]2C)cc1` was inactive: 0.974; that for `CC(C)CN1C[C@@H]2CCNCC[C@H]2S1(=O)=O` was inactive: 0.958; that for `C[C@@H]1CCCCO[C@@H](CN(C)Cc2ccc(Cl)c(Cl)c2)[C@@H](C)CN([C@@H](C)CO)C(=O)c2cc(NC(=O)Nc3ccccc3)ccc2O1` was inactive: 1.02.
The same measure for `COc1ccc(S(=O)(=O)Nc2ccc3c(c2)C(=O)N([C@@H](C)CO)C[C@H](C)[C@@H](CN(C)C(=O)c2ccccc2)OCCCC[C@H](C)O3)cc1`: inactive: 1.01; for `COc1cccc(NC(=O)N(C)C[C@@H]2Oc3ncc(C#Cc4ccncc4)cc3C(=O)N([C@H](C)CO)C[C@@H]2C)c1`: inactive: 1.01.
The value for `C[C@H](CO)N1C[C@H](C)[C@H](CN(C)C(=O)CCC(F)(F)F)OCCCC[C@H](C)Oc2ccc(NC(=O)C3CCCCC3)cc2C1=O` was inactive: 0.995.
Turning to `C[C@@H]1CCCCO[C@H](CN(C)Cc2ccc(C(F)(F)F)cc2)[C@H](C)CN([C@H](C)CO)C(=O)c2cc(NS(=O)(=O)c3ccc(F)cc3)ccc2O1`, the relative growth was inactive: 1.02.
As for `C[C@@H]1CN([C@H](C)CO)S(=O)(=O)c2ccc(C#C[C@@H](C)O)cc2O[C@H]1CN(C)C(=O)CN(C)C`, the relative growth was inactive: 1.02.
The same measure for `C[C@H](CO)N1C[C@H](C)[C@H](CN(C)Cc2ccc(Oc3ccccc3)cc2)Oc2ccc(NS(=O)(=O)c3ccccc3)cc2C1=O`: inactive: 0.984; for `O=C(O)c1ccc(N[C@@H]2OC[C@H](O)[C@@H](O)[C@@H]2O)cc1`: inactive: 1.05; for `Cc1noc(C)c1NC(=O)Nc1ccc2c(c1)C(=O)N([C@H](C)CO)C[C@@H](C)[C@H](CN(C)C(=O)Nc1ccc3c(c1)OCO3)OCCCC[C@@H](C)O2`: inactive: 1.03.
The same measure for `C[C@@H]1CN([C@@H](C)CO)C(=O)c2cccc(NC(=O)Nc3ccc(C(F)(F)F)cc3)c2O[C@@H]1CN(C)C(=O)NC1CCCCC1`: inactive: 0.978; for `O=C(Cc1ccncc1)NCC[C@@H]1CC[C@@H](NC(=O)C2CCOCC2)[C@@H](CO)O1`: inactive: 0.994; for `Nc1nc(C(=CCC(=O)O)C(=O)NC2C(=O)N3C(C(=O)O)=CCSC23)cs1` (stereo not drawn): active: 0.0485.
The same measure for `C[C@@H]1CN([C@H](C)CO)C(=O)Cc2cc(NS(C)(=O)=O)ccc2O[C@@H]1CN(C)C(=O)Nc1ccccc1`: inactive: 0.986.
Take `C[C@H]1CN([C@@H](C)CO)S(=O)(=O)c2ccc(-c3cncnc3)cc2O[C@H]1CN(C)C(=O)Cc1ccccc1`: the relative growth is inactive: 1.02.
The same measure for `CCOC(=O)C1=C(C)NC(=O)N[C@@H]1C`: inactive: 0.987.
The value for `Cc1noc(C)c1S(=O)(=O)N(C)C[C@@H]1Oc2ccc(NC(=O)NC(C)C)cc2CC(=O)N([C@H](C)CO)C[C@H]1C` was inactive: 0.982.
The same measure for `O=C1O[C@H](c2ccccc2)[C@H](c2ccccc2)N2[C@H]1[C@@H](C(=O)N1CCN(c3ncccn3)CC1)[C@]1(C(=O)Nc3ccc(C#CC4(O)CCCCCC4)cc31)[C@H]2c1ccccc1OCCO`: inactive: 1.06.
Turning to `C[C@@H]1CCCCO[C@@H](CN(C)S(=O)(=O)c2cn(C)cn2)[C@H](C)CN([C@@H](C)CO)C(=O)c2cc(N(C)C)ccc2O1`, the relative growth was inactive: 1.03.
The same measure for `CN1CCN(C(=O)C[C@@H]2C[C@@H]3c4cc(NS(=O)(=O)c5ccc(F)cc5)ccc4O[C@@H]3[C@@H](CO)O2)CC1`: inactive: 1; for `Nc1ncnc2c1ncn2[C@H]1O[C@@H](CO)[C@H](O)[C@@H]1O`: inactive: 0.993.
As for `C[C@H](CO)N1C[C@H](C)[C@@H](CN(C)C(=O)Nc2ccccc2)Oc2ccc(NC(=O)CCCCCC(=O)Nc3ccccc3N)cc2CC1=O`, the relative growth is inactive: 0.998.
As for `CN[C@@H]1[C@@H](O)[C@@H](O[C@@H]2[C@@H](O)[C@H](O[C@H]3O[C@H]([C@@H](C)NC)CC[C@H]3N)[C@@H](N)C[C@H]2N)OC[C@]1(C)O`, the relative growth is inactive: 0.57.
The same measure for `C[C@@H]1CN([C@H](C)CO)C(=O)c2cc(NS(=O)(=O)c3cccs3)ccc2O[C@@H](C)CCCCO[C@@H]1CN(C)S(=O)(=O)c1ccc(Cl)cc1`: inactive: 1.01; for `COc1ccc(NC(=O)Nc2ccc3c(c2)C(=O)N([C@@H](C)CO)C[C@H](C)[C@H](CN(C)C(=O)Nc2ccc(F)cc2)OCCCC[C@@H](C)O3)cc1`: inactive: 1.05.
The value for `COc1ccc(NC(=O)N(C)C[C@H]2Oc3ccc(NC(=O)CCCCCC(=O)Nc4ccccc4N)cc3CC(=O)N([C@@H](C)CO)C[C@@H]2C)cc1` was inactive: 0.974.
The value for `C[C@@H]1[C@@H](O)[C@@H](N(C)C)C[C@H]2COC[C@@H]21` was inactive: 1.
As to `C[C@@H]1CCCCO[C@@H](CN(C)S(=O)(=O)c2ccc(Cl)cc2)[C@@H](C)CN([C@H](C)CO)C(=O)c2cc(NC(=O)Nc3ccccc3)ccc2O1`, the relative growth is inactive: 1.01.
The same measure for `C[C@H]1CN([C@@H](C)CO)C(=O)c2cc(NC(=O)Nc3ccc(C(F)(F)F)cc3)ccc2O[C@H]1CN(C)Cc1ccccc1`: inactive: 1.03; for `CC1(C)S[C@H]2[C@@H](NC(=O)[C@@H](N)c3ccccc3)C(=O)N2[C@@H]1C(=O)O`: inactive: 1.01.
The value for `Cc1noc(C)c1NC(=O)N(C)C[C@@H]1Oc2c(NC(=O)Nc3ccc(C(F)(F)F)cc3)cccc2C(=O)N([C@H](C)CO)C[C@@H]1C` was inactive: 0.954; that for `C[C@H](CO)N1C[C@H](C)[C@@H](CN(C)Cc2cccc(C(=O)O)c2)Oc2cc(Br)ccc2S1(=O)=O` was inactive: 1; that for `C[C@@H]1CN([C@H](C)CO)C(=O)c2cccc(NC(=O)c3ccncc3)c2O[C@@H]1CN(C)S(=O)(=O)c1cn(C)cn1` was inactive: 1.03.
For `C[C@@H]1CCCCO[C@@H](CN(C)S(=O)(=O)c2ccccc2)[C@@H](C)CN([C@H](C)CO)C(=O)c2cc(NC(=O)c3ccccc3)ccc2O1`, the relative growth was inactive: 1.
